Where a name gives a salt, the structure may show the parent alone. ± gives the standard error. In all, about 1,300 compounds went through this assay and about 75 (6%) showed an effect of 50% or more. Some of the results follow.

In this test the test system is Trichoderma virens ATCC 9645. Nature of the test: growth yield (OD600) relative to untreated control; higher = less growth inhibition. The note with it: compound concentration: 100 uM. The method in brief: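 Trichoderma virens ATCC 9645 spores from 7-day potato dextrose agar plates were suspended in potato dextrose broth at 15,000 spores ml^−1. Aliquots of 100 μl with library compounds at 100 μM final, with or without a co-applied biocide at 200 ng ml^−1, were grown in 96-well plates at 30 °C. OD600 was read at 40 h and 72 h on a BioTek EL800. Growth is expressed relative to the control without either agent, as means of duplicate screens.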

As to `CN1[C@@H]2CC[C@H]1C[C@@H](OC(=O)C(CO)c1ccccc1)C2` (stereo partly specified) [Atropine sulfate monohydrate], the growth yield was 104 ± 1.6% (40 h) and 103 ± 2.2% (72 h).
Turning to `CC(C)C[C@H]1C(=O)N2CCC[C@H]2[C@]2(O)O[C@](NC(=O)[C@@H]3C=C4c5cccc6[nH]c(Br)c(c56)C[C@H]4N(C)C3)(C(C)C)C(=O)N12` [Bromocryptine mesylate], the growth yield reads like this: (40 h) 101 ± 1.1%; (72 h) 104.8 ± 0.94%.
For the molecule `C[C@]12CCC(=O)C(O)=C1CC[C@@H]1[C@@H]2CC[C@]2(C)C(=O)CC[C@@H]12` [Formestane], the growth yield worked out at 101 ± 3.2% (40 h) and 100 ± 2.8% (72 h).
The molecule `CNC(C)(C)Cc1ccccc1` [Mephentermine hemisulfate] came in with a growth yield (40 h) of 99.9 ± 5.2% and a growth yield (72 h) of 95 ± 2.1%.
On to `COc1ccc(C(CN(C)C)C2(O)CCCCC2)cc1` (stereo unspecified) [Venlafaxine], for which the growth yield came out at 95.9 ± 5.7% (40 h) and 94.8 ± 4.2% (72 h).
In the case of `CN(C)C(=O)Oc1cccc([N+](C)(C)C)c1` [Neostigmine bromide], the growth yield by setting is: (40 h) 94.7%; (72 h) 96.5%.
With `CNC(=O)Oc1ccc2c(c1)[C@]1(C)CCN(C)[C@@H]1N2C` [Eserine hemisulfate salt], the growth yield came to 102.5 ± 0.16% (40 h) and 102.8 ± 0.42% (72 h).
`CC(C)(N)Cc1ccccc1` [Phentermine hydrochloride]: the growth yield was determined as 105 ± 1.6% (40 h) and 100.2 ± 0.94% (72 h).
In the same order, the values of `CCNCC(O)c1cccc(O)c1` (stereo unspecified) [Etilefrine hydrochloride] are 105 ± 3% and 103.1 ± 0.94%.
Regarding `O=c1[nH]c2ccccc2n1C1CCN(CCCC(c2ccc(F)cc2)c2ccc(F)cc2)CC1` [Pimozide], the growth yield was determined as 94.99 ± 0.64% (40 h) and 110 ± 2.7% (72 h).
Molecule `CN(C)C(=O)Oc1ccc[n+](C)c1` [Pyridostigmine iodide] showed a growth yield (40 h) of 104 ± 4.1% and a growth yield (72 h) of 104 ± 3.2%.
`C#CCN(C)[C@H](C)Cc1ccccc1` [Selegiline hydrochloride]: the growth yield worked out at 102 ± 1.4% (40 h) and 104 ± 5% (72 h).
`C[C@]12CC[C@@H](O)C[C@H]1CC[C@@H]1[C@@H]2CC[C@]2(C)C(=O)CC[C@@H]12` [3-alpha-Hydroxy-5-beta-androstan-17-one]: the growth yield runs as follows: (40 h) 80.8 ± 1.4%; (72 h) 82.6 ± 1.5%.
For the molecule `CC1OC(OC2/C=C/C=C/C=C/C=C/CC/C=C/C=C/[C@H](C)[C@@H](O)[C@@H](C)[C@H](C)OC(=O)CC(O)CC(O)CC(O)CCC(O)C(O)C[C@]3(O)CC(O)C(C(=O)O)C(C2)O3)C(O)C(N)C1O` (stereo partly specified) [Nystatine], the growth yield is, setting by setting: (40 h) 97.4 ± 5.6%; (72 h) 107.3 ± 0.94%.
In the case of `NCCCNCCSP(=O)(O)O` [Amifostine], the growth yield runs as follows: (40 h) 101 ± 3.6%; (72 h) 99.2 ± 1.9%.
`O=C(CCCN1CCC(n2c(=O)[nH]c3ccccc32)CC1)c1ccc(F)cc1` [Benperidol] yielded a growth yield (40 h) of 102 ± 5.2% and a growth yield (72 h) of 99.9 ± 7.2%.
As to `C=CCC1(CC(C)C)C(=O)NC(=O)NC1=O` [Butalbital], the growth yield runs as follows: (40 h) 98.2%; (72 h) 96.5%.
On to `C[C@@H]1CN([C@H]2CC[C@](C#N)(c3ccc(F)cc3)CC2)CC[C@]1(C(=O)O)c1ccccc1` [Levocabastine hydrochloride], for which the growth yield by setting is: (40 h) 105 ± 3.3%; (72 h) 99.3 ± 1.6%.

The values above are taken from the supplement of paper PMC8007513.
